The text below walks through data of the supplement of paper PMC5919970.

SMILES strings stand for the structures. Structures can show the parent of a compound that is named as a salt. Whole data set: some 2,000 compounds, median “fractional viability relative to vehicle” near 0.91, cut for the lowest 2% near 0.045. The list shows a part of the results.

The subject of the experiment is TYKNU. The experiment in a line: fractional viability relative to vehicle; TYKNU is a high-grade serous ovarian cancer line; higher = less growth inhibition. The note with it: 72 h. The essentials:
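Drug treatment lasted 72 h, with cells grown at 37 °C in 5% CO2 in RPMI 1640 supplemented with 10% FBS. Beforehand, TYKNU control cells or their lentiCRISPRv2 knockout derivatives had been seeded at 500 cells per well into drug-stamped 384-well plates carrying a ~2100-compound library at 2 or 10 μM, in duplicate. Viability came from Cell Titer Glo luminescence, with averaged duplicate treatment wells normalised to duplicate control wells in the same plate position.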

Setting [1] is: 2uM, genotype: DNM1L knockout (sgDNM1L #1).
Where [2] appears, read: 2uM, genotype: sgCTRLA1 (non-targeting control).
[3] abbreviates: 10uM, genotype: DNM1L knockout (sgDNM1L #1).
Setting [4] is: 10uM, genotype: sgCTRLA1 (non-targeting control).

Regarding `CCCCCCCCc1ccc(CCC(N)(CO)CO)cc1` [Fingolimod (FTY720) HCl], the fractional viability came to 0.722 under setting [1], 1.02 under setting [2], 0.0372 under setting [3] and 0.0418 under setting [4].

`COc1ccc2[nH]c([S+]([O-])Cc3ncc(C)c(OC)c3C)nc2c1` (configuration not stated) [Omeprazole] returned a fractional viability under setting [1] of 1.4, a fractional viability under setting [2] of 1.09, a fractional viability under setting [3] of 0.901 and a fractional viability under setting [4] of 1.17.

Take `CCS(=O)(=O)Nc1ccc2c(c1)/C(=C(/Nc1ccc(CN3CCCCC3)cc1)c1ccccc1)C(=O)N2` [Hesperadin]: the fractional viability was 0.316 under setting [1], 0.329 under setting [2], 0.0548 under setting [3] and 0.0381 under setting [4].

Turning to `O=C(Nc1ccc(-c2ccnc(Nc3ccc(N4CCOCC4)cc3)n2)cc1)C1CCCN1` (configuration not stated), the fractional viability runs as follows: under setting [1], 0.994; under setting [2], 1.14; under setting [3], 1.01; under setting [4], 0.923.

With `COc1nc(-c2ccc3c(c2)OCO3)n(-c2ccc(NC(=O)CSc3ccccc3)cc2)n1` [SecinH3], the fractional viability is 0.777 under setting [1], 0.923 under setting [2], 0.797 under setting [3] and 0.767 under setting [4].

Consider `NC(=S)N/N=C/c1ncccc1N` [Triapine], for which the fractional viability is 0.194 under setting [1], 0.166 under setting [2], 0.216 under setting [3] and 0.167 under setting [4].

Consider `Nc1cccc2c1CN(C1CCC(=O)NC1=O)C2=O` (configuration not stated) [Lenalidomide (CC-5013)], for which the fractional viability runs as follows: under setting [1], 0.994; under setting [2], 1.07; under setting [3], 0.97; under setting [4], 1.

Turning to `O=C(NS(=O)(=O)c1ccc(Br)s1)c1ccc(Cl)cc1Cl` [Tasisulam], the fractional viability was 0.84 under setting [1], 0.973 under setting [2], 0.503 under setting [3] and 0.726 under setting [4].

In the case of `C/C(=N\NC(=O)c1cccc(S(=O)(=O)N2CCOCC2)c1)c1cc(Cl)ccc1O`, the fractional viability runs as follows: under setting [1], 0.348; under setting [2], 0.356; under setting [3], 0.242; under setting [4], 0.136.

Take `OCCOCCN1CCN(C(c2ccccc2)c2ccc(Cl)cc2)CC1` (configuration not stated) [Hydroxyzine 2HCl]: the fractional viability runs as follows: under setting [1], 0.999; under setting [2], 1.15; under setting [3], 0.708; under setting [4], 1.

Consider `COc1ccc(CNC(=O)Nc2ncc([N+](=O)[O-])s2)cc1`, for which the fractional viability amounted to 1.16 under setting [1], 1.14 under setting [2], 0.911 under setting [3] and 0.791 under setting [4].

Regarding `Cn1c2ccccc2c2c3c(c4c5ccccc5n(CCC#N)c4c21)CNC3=O`, the fractional viability under setting [1] amounted to 0.64, the fractional viability under setting [2] came to 1.01, the fractional viability under setting [3] amounted to 0.671 and the fractional viability under setting [4] was 0.79.

Take `Cc1ccccc1N1C(=O)c2cc(S(N)(=O)=O)c(Cl)cc2NC1C` (configuration not stated) [Metolazone]: the fractional viability under setting [1] stood at 1.06, the fractional viability under setting [2] was 1.24, the fractional viability under setting [3] came to 0.826 and the fractional viability under setting [4] stood at 1.13.

For `Cc1cc(-n2c(=O)[nH]c(=O)n(C)c2=O)ccc1Oc1ccc(SC(F)(F)F)cc1` [Toltrazuril], the fractional viability under setting [1] worked out at 1.02, the fractional viability under setting [2] worked out at 1, the fractional viability under setting [3] turned out to be 0.841 and the fractional viability under setting [4] came out at 0.948.

With `[I-].[K+]` [Potassium Iodide], the fractional viability runs as follows: under setting [1], 0.934; under setting [2], 1.16; under setting [3], 0.955; under setting [4], 0.937.

In turn, `C=CC(=O)N1CCC[C@@H](n2nc(-c3ccc(Oc4ccccc4)cc3)c3c(N)ncnc32)C1` yielded a fractional viability under setting [1] of 1, a fractional viability under setting [2] of 1.18, a fractional viability under setting [3] of 0.959 and a fractional viability under setting [4] of 1.2.

For the molecule `CC(=O)N1CCN(CCOc2ccc(C3CCN(C4=Nn5c(nnc5C(F)(F)F)CC4)CC3)cc2)CC1`, the fractional viability turned out to be 0.811 under setting [1], 0.931 under setting [2], 0.663 under setting [3] and 0.696 under setting [4].

With `O=C(O)c1ccccc1C(=O)Nc1ccc(-c2ccccc2)cc1` [Kartogenin], the fractional viability worked out at 0.795 under setting [1], 0.86 under setting [2], 0.781 under setting [3] and 0.743 under setting [4].
